# Measurements as given in the supplement of paper PMC3334620.
# Whole data set: some 33,000 sequences, median “E-score (-0.5 to 0.5)” near -0.021, cut for the highest 2% near 0.32. The list shows a part of the results.
# Target: T1, Zap1 (UniProt P47043)
# T1 sequence: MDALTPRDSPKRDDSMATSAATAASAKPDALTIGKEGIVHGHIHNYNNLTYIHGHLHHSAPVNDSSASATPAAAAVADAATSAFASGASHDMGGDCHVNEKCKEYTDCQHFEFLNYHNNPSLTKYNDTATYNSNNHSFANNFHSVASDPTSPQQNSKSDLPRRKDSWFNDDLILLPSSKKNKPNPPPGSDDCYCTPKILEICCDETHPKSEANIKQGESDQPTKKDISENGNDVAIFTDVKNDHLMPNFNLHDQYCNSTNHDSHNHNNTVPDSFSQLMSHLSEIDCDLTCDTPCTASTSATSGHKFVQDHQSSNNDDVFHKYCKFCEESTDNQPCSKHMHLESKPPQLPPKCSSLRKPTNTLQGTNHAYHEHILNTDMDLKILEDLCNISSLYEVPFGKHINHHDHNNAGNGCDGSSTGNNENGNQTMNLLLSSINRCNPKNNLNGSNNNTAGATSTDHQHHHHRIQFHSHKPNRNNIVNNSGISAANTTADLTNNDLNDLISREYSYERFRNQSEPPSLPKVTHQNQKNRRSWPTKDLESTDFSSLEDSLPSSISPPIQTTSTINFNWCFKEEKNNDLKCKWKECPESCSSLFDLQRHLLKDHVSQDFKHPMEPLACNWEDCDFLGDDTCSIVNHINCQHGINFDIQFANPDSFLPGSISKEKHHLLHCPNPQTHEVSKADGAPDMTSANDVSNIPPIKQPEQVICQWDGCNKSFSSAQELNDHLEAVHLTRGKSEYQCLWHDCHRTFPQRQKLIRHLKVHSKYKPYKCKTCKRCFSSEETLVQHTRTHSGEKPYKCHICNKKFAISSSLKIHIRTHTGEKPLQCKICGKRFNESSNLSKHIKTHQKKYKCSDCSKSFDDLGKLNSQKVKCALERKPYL
# Assay: PBM E-score (8-mer binding enrichment) (E-score (-0.5 to 0.5)); higher = stronger / more preferred TF binding; most listed sequences are background and not binding sites
# Details: protein concentration: 200 nM; construct: GST-full length
# Method in brief: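 GST-tagged yeast TFs (full-length or DNA-binding domain) were made by PURExpress in vitro transcription/translation and applied at about 100-200 nM to universal all-10-mer Agilent arrays. The arrays were made double-stranded by primer extension, on fresh or once-stripped slides. Bound protein was detected with fluorescent anti-GST, and scans were normalised with masliner. Each ungapped eight-base word, pooled with its reverse complement, received an E-score (modified Wilcoxon-Mann-Whitney statistic) from the Universal PBM Analysis Suite.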
row,Sequence,PBM E-score
1,CAGAAAGG,0.234
2,CTGTGTTC,0.0619
3,AACGCATA,-0.0892
4,CGATGGCA,-0.128
5,CGCAATAG,0.0708
6,ACCGACGG,0.00095
7,CAATACCC,0.214
8,TCCGAAGA,-0.115
9,CCGTGACA,-0.136
10,AGGCTTTG,-0.027
11,CGGGTGGC,0.0562
12,GATCTGTA,-0.0107
13,AGGTCATG,0.416
14,GTATCTGA,0.0899
15,AGGTCAGA,0.149
16,ATGCTCGG,-0.237
17,TTAGTCAA,-0.0492
18,CTCCCGGC,-0.0914
19,CGTTGTCA,-0.0447
20,AAACGTCT,-0.0196
21,AAGTGGAT,0.002
22,CCGAGGCC,-0.0616
23,CAACTGTC,-0.0568
24,ATACTTCC,0.0042
25,GACTGGGC,-0.306

row,Sequence,PBM E-score
1,ATACGAGA,-0.0901
2,ACGTGGGG,-0.263
3,GAATACTC,0.0943
4,GCGAGGTA,0.229
5,CGATCTGC,-0.114
6,GTCGATGA,-0.149
7,CCTTGTCC,-0.106
8,TACGTGGA,-0.194
9,ACAGGGGA,-0.194
10,AGTCAGCA,-0.156
11,CGTTGAAG,-0.0128
12,AGCTTAAT,0.13
13,CTCTGCTC,-0.281
14,CCTCTAGA,0.167
15,GCGAGTAC,0.014
16,ATACTTGC,-0.0932
17,AAATGAAG,0.0973
18,ACTGCTGA,0.0194
19,AACGCGCA,-0.101
20,ACAAACCA,0.105
21,ATACCCTG,0.306
22,AGATCAAA,-0.0021
23,AGAATAAG,-0.0373
24,CCTGTAGA,0.104
25,GCCATCTA,-0.024

row,Sequence,PBM E-score
1,CTAAGCCA,-0.198
2,ATAATAAC,0.287
3,ACTCCACG,-0.269
4,CTGAGTAA,0.145
5,AGTCCCAG,-0.213
6,AAAAAATT,0.0563
7,CCGTTAAC,0.102
8,GGGCCGCA,-0.127
9,AGTTGGAC,0.0735
10,CTCCTTGA,-0.253
11,CACCAGGG,0.00214
12,ACCAAGCT,0.0599
13,GGCAATCA,-0.0629
14,CATGTTGG,-0.0429
15,ACGAGTAT,-0.0933
16,GCGGAGGA,-0.34
17,AAACGGAA,0.127
18,CCAGACGC,-0.0692
19,CAACTAAC,0.21
20,ACGCGTGG,0.141
21,CCTATGGA,-0.0255
22,CCTGGTGC,-0.101
23,AAGGTGGG,0.24
24,AACCTAAC,0.229
25,TGCCCAAA,-0.0925

row,Sequence,PBM E-score
1,CCAGATAA,0.165
2,GGCATTTA,-0.273
3,AGCACTAC,-0.0779
4,ATGAGCTG,-0.13
5,ATGTGTAC,0.0297
6,AAGTGCCT,-0.222
7,ACCCTGCG,0.422
8,ATTCGCCC,-0.122
9,CAACCGGC,0.135
10,ATTAGCTA,0.027
11,ATAGCGCC,-0.157
12,CAAGCAGA,0.0449
13,AGTACGAG,0.0684
14,CGACTTAG,-0.0772
15,AACGGCGT,-0.114
16,GCTAACTA,0.138
17,GCCCCTTA,-0.0926
18,ACTCTTCG,-0.153
19,GCCCTAAA,-0.194
20,CTACTGTC,-0.25
21,GAGTTTAC,-0.0243
22,ACTCCAGT,-0.099
23,ACCAAACG,0.0901
24,ACTAACAT,0.119
25,GAGGTCCC,0.174

row,Sequence,PBM E-score
1,TACTAGTA,0.145
2,TGCGCACA,-0.037
3,AATTATCG,0.176
4,ATATTACC,0.251
5,AATCGGGG,0.0703
6,GAGTTCGA,0.0349
7,CGCGGGGC,-0.111
8,GCTAGCAA,-0.105
9,AGAAGAAA,-0.0343
10,AATATAGC,-0.0221
11,CAGCCGCC,-0.154
12,ACTAGAGC,-0.116
13,ACATAGGA,-0.178
14,GCTCTCGA,-0.0617
15,CCGACTCA,-0.101
16,CAAGAGTA,0.00378
17,GAGACCAC,0.15
18,CGATCGGA,-0.0483
19,AGTTTGTA,0.0748
20,CGATTACG,-0.051
21,CGTATTCA,0.0538
22,ATATCGAC,-0.00502
23,AGGTTGAT,0.0401
24,ATACCAGC,-0.0649
25,GACCTACC,0.109

row,Sequence,PBM E-score
1,ATTTGAAG,0.0444
2,CGTGACAC,-0.0877
3,TATAGAGA,-0.066
4,CGCGACTC,-0.0425
5,CCATTTCA,-0.11
6,AGCAGATG,-0.264
7,AATCGAAA,0.0353
8,CTCATGTA,0.00014
9,GCAACGAC,-0.218
10,AAAGCGGG,-0.212
11,CCGCAAAA,0.258
12,ATTAGACC,-0.0851
13,GTGGGAAA,-0.00346
14,CAACGACC,0.0537
15,CCGATTCA,-0.263
16,AGGACCCC,0.102
17,CGGGCCCA,-0.126
18,CCGGGTAC,0.348
19,CTCACCCA,0.00498
20,GACTATCC,-0.23
21,ATTAGTAG,0.0336
22,ACACCTCT,-0.111
23,CTCCCATC,-0.248
24,AACAACTT,0.172
25,GCCACGGA,-0.00937

row,Sequence,PBM E-score
1,CAGAGACA,-0.317
2,CGGCCTCA,0.162
3,ACAACTTC,0.229
4,ACACTTTG,0.0966
5,GAATTAGA,-0.00012
6,GCTGCAAA,0.19
7,TTATGAAA,0.183
8,AGCTCGTC,-0.294
9,AATCGAAG,0.026
10,CGCCGGAC,-0.167
11,ATGGCTGA,-0.0536
12,CACTCCGG,0.118
13,CAATCCTG,-0.0364
14,TAGCGAGA,-0.0721
15,ATTTGCGG,0.00189
16,CCGATGCC,-0.108
17,AACCCTCT,0.27
18,AGCCTAGC,-0.261
19,AGACCCGA,0.274
20,CCGCGTCA,-0.107
21,CTACACTC,-0.115
22,TGCTACCA,-0.0261
